# Assay results published in the supplement of paper PMC10126150.
# Values marked as one replicate rest on one cluster of the flow cell; about a third of the high ones do not repeat.
# Tested on: ATP
# Assay: switch fluorescence ratio, 500 uM ATP over buffer (Cy3 cluster intensity, sum of 5 cycles each) (fold (ratio)); higher = stronger signal-on switching upon ATP binding; sequences stand for … in TCGTCGGCAGCGTCAGATGTGTATAAGAGACAGTTTTTTTTTTTTTTTTTTTTTTTTT…TC
# Details: aptamer strand: ATP DNA aptamer (quencher-CACCTGGGGGAGTATTGCGGAGGAAGG + anchor), 100 nM annealed; ATP concentration: 500 uM; one replicate
# Procedure, shortened: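 Values give the fluorescence ratio for each switch-domain sequence, averaged from per-cluster ratios of summed target-cycle to summed buffer-cycle Cy3 intensity. The Cy3-labelled switching-strand clusters sat on a modified Illumina MiSeq flow-cell, were annealed to 100 nM quencher-labelled ATP aptamer, and were imaged in selection buffer, then after 15 min with 500 uM ATP at 22 °C. Five cycles ran with NaOH stripping and re-annealing between them, and clusters outside 100-1000 RFU were excluded.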
# 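Also: ATP exposure 15 min at 22 °C before imaging.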
row,Sequence,switch fluorescence ratio
1,AGGGGCTTT,0.999
2,ACGGAAGATC,1.08
3,GGCTGCGCCC,0.936
4,TTCGGGACTC,1.06
5,TACGGACCCT,1.08
6,TGAGATCACC,0.994
7,GCCTGGCATG,0.992
8,GAGGGTTACG,1.03
9,GGCAAAATGT,0.972
10,AACTGCGTTT,0.982
11,TCGGGCCCAT,1.38
12,GTCAAAGCGT,1.03
13,ACTGATTGGT,1.03
14,ACGACGCCGG,1.6
15,AGTAGACTT,1
16,ACGGGACGTT,0.933
17,TCTTGCTGTA,0.966
18,GGGTTTATAC,1.02
19,CGGGAAAAGG,0.994
20,TTCGGCCGTA,1
21,TTGCTCAGTG,1.08
22,TAGATTACTC,0.987

row,Sequence,switch fluorescence ratio
1,TTAGTTAAGG,0.981
2,TGGAGCGATG,1.49
3,AGTCAACCTG,1
4,GCAGCATGAG,1.32
5,AGATGGGCA,0.914
6,ATTGCAGGAG,0.99
7,AAGGCGTAAA,0.985
8,AACTATTGTT,0.971
9,CAATCAGGTG,4.46
10,CATCTACGGG,1.09
11,AAACGCATTT,1.12
12,TTTACACAGC,1.07
13,CACATTGGCA,1.01
14,TAAAAAACG,1.1
15,ACGTTCACTT,1.3
16,GTTTTATCAA,0.975
17,CACTAGTTGA,1.01
18,CGCCTACGTG,1.02
19,CCGCAGGGGG,1.36
20,TTAGTCCCA,0.967
21,AGACATTGCT,1.04
22,CAGAGGATTG,0.999

row,Sequence,switch fluorescence ratio
1,ACCGCTGGTG,1.74
2,AGTCACCTGT,1.18
3,TACGTCAGTA,1.02
4,TGGCACCCTA,1.03
5,GAATATTATC,1.01
6,TCTCACCAAA,1.05
7,ACAAAAGTTC,1.02
8,AGGCCTGACT,1.07
9,TATTTCGGTA,1.03
10,ATAAGGGCC,0.988
11,TCTCGGGGCA,1.05
12,TCCATGGTCT,0.987
13,AATTAAATGC,1.03
14,ACTGGCCCTG,1.05
15,GCTAGGCCTG,1.02
16,TGGGGTTGG,0.995
17,ATCATAGCTT,1.06
18,TCAGGTACAA,1.05
19,CCAGGGCTTG,1.01
20,TTGTTACAAA,0.941
21,CAATCCGATA,1.05
22,GCTAGCCAAC,1.04

row,Sequence,switch fluorescence ratio
1,GGGTGGG,1
2,CCATGAGAGG,1
3,CAATTCAAGC,1.4
4,AGGTCTAGCG,0.999
5,ATTTGGACAA,1.02
6,TTCTGGAGTG,1.06
7,GGCATAGTCA,1.02
8,AATGGGCGTG,0.999
9,AACCAAAA,0.988
10,GCCGGGTGCT,1
11,CTTCGGTTGA,0.98
12,CCCCTTATGC,1.37
13,GCTCTGCGAC,3.84
14,TACGAGAGGC,1.07
15,ATCTAGTGAA,0.984
16,ACTCATGATT,1.04
17,CGGCAGCGAA,1.05
18,ATGACCACGC,1.03
19,GACTTTTAAC,0.979
